Assay results from patent publication US20240124563A1 (NANJING ZAIMING PHARMACEUTICAL, published 2024).

Assays:
[1] = biological target: T1, human MSLN-FL-his protein (human, UniProt Q13421 296-580); experiment: competitive ELISA on MSLN-FL-His; other antibody: NB149-95 (3.m11)
T1 construct: Made in HEK293E cells, purified on nickel column; also called hMSLN-FL-his; not shown: histidine tag

[2] = biological target: T1, human MSLN-FL-his protein; experiment: competitive ELISA on MSLN-FL-His; other antibody: NB148-13 (3.m1)
T1 sequence (Q13421 other isoform, or with tags, fused parts or gaps): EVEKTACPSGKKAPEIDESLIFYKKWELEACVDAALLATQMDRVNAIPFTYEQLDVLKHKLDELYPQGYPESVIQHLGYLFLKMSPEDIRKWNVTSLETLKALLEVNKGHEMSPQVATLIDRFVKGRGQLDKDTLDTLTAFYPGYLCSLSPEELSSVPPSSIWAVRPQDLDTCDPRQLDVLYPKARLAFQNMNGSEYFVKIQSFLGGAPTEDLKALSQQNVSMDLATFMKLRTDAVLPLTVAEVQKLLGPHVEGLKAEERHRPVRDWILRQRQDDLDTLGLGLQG

[3] = biological target: T1, human MSLN-FL-his protein; experiment: SPR, antibody captured on Protein A chip, MSLN-FL-his injected, 1:1 model
[4] = biological target: T2, human MSLN full-length protein, recombinant, on CHO-K1 or HEK293T cells (human, UniProt Q13421 296-598); experiment: competitive FACS on CHO-K1-human MSLN-2C8 cells vs Biotin-Tab142; competitor at 0.032 nM
T2 construct: The background says that the precursor is cleaved by furin to the mature membrane form; also called hMSLN; CHO-K1-hMSLN-2C8

[5] = biological target: T2, human MSLN full-length protein, …; experiment: FACS, CHO-K1-hMSLN-2C8 cells
[6] = biological target: T1, human MSLN-FL-his protein; experiment: competitive ELISA on MSLN-FL-His; other antibody: NB148-25 (3.m2)
[7] = biological target: T1, human MSLN-FL-his protein; experiment: competitive ELISA on MSLN-FL-His; other antibody: NB148-46 (3.m5)
[8] = biological target: T3, human MSLN protein endogenously expressed on tumor cells (Hela, OVCAR3) (human, UniProt Q13421 296-598); experiment: FACS, Hela cells
T3 construct: whole, on cells

[9] = biological target: T1, human MSLN-FL-his protein; experiment: competitive ELISA on MSLN-FL-His; other antibody: NB149-34 (3.m8)
[10] = biological target: T2, human MSLN full-length protein, …; experiment: competitive FACS on CHO-K1-human MSLN-2C8 cells vs Biotin-Tab131; competitor at 0.00256 nM
[11] = biological target: T2, human MSLN full-length protein, …; experiment: competitive FACS on CHO-K1-human MSLN-2C8 cells vs Biotin-Tab131; competitor at 1.6 nM
[12] = biological target: T2, human MSLN full-length protein, …; experiment: competitive FACS on CHO-K1-human MSLN-2C8 cells vs Biotin-Tab131; competitor at 0.064 nM
[13] = biological target: T2, human MSLN full-length protein, …; experiment: competitive FACS on CHO-K1-human MSLN-2C8 cells vs Biotin-Tab131; competitor at 200 nM
[14] = biological target: T2, human MSLN full-length protein, …; experiment: competitive FACS on CHO-K1-human MSLN-2C8 cells vs Biotin-Tab131; competitor at 0.0128 nM
[15] = biological target: T2, human MSLN full-length protein, …; experiment: competitive FACS on CHO-K1-human MSLN-2C8 cells vs Biotin-Tab131; competitor at 8 nM
[16] = biological target: T2, human MSLN full-length protein, …; experiment: competitive FACS on CHO-K1-human MSLN-2C8 cells vs Biotin-Tab131; competitor at 40 nM
[17] = biological target: T2, human MSLN full-length protein, …; experiment: competitive FACS on CHO-K1-human MSLN-2C8 cells vs Biotin-Tab131; competitor at 0.32 nM

Binder	inhibition rate [1]	inhibition rate [2]	Kd [3]	koff [3]	kon [3]	MFI of Biotin-Tab142 [4]	EC50 [5]	Max MFI [5]	inhibition rate [6]	inhibition rate [7]	EC50 [8]	Max MFI [8]	inhibition rate [9]	MFI of Biotin-Tab131 [10]	MFI of Biotin-Tab131 [11]	MFI of Biotin-Tab131 [12]	MFI of Biotin-Tab131 [13]	MFI of Biotin-Tab131 [14]	MFI of Biotin-Tab131 [15]	MFI of Biotin-Tab131 [16]	further results
NB149-34 VHH-hFc (Fc fusion) QLQLVESGGGLVQPGGSLRLSCAASGSVNSITAMGWYRQGPGNERELVAVITDRGRASYADSVKGRFAISMDNDKHTVYLQMDSLKPEDTAVYYCNAHRRTWPHPGDYWGQGTQVTVSS[human IgG1 Fc with changes not written out]	62%	-7%	0.216 nM	0.000471 s⁻¹	2.18e+06 M⁻¹ s⁻¹	43100	2.23 nM	11700	-13%	53%	0.16 nM	382	66%								
NB149-70 VHH-hFc (Fc fusion) QVQLVESGGGLVQPGGSLRLSCAASGSIFSGNAVAWYRQAPGKEREAVAVITRDGDTKYADSVKGRFTISRYNAKNIAYLQMNSLKPEDTAVYYCNTARGAAVDSWGQGTQVTVSS[human IgG1 Fc with changes not written out]	52%	29%	0.795 nM	0.00116 s⁻¹	1.46e+06 M⁻¹ s⁻¹	42700	2.22 nM	11300	24%	64%	0.13 nM	303	60%								
NB149-95 VHH-hFc (Fc fusion) QVQLVESGGGLVQAGGSLRLSCTASESGFSANYMGWYRQEAPGKERELVATINRFGSTNYADSVKGRFTISRDNAKNTVYLQMNSLKSEDTGVYYCRIMRPGNWYWGQGTQVTVSS[human IgG1 Fc with changes not written out]	13%	8%	0.0234 nM	3.24e-05 s⁻¹	1.39e+06 M⁻¹ s⁻¹	42300	2.05 nM	12800	7%	41%	0.12 nM	388	17%								
NB148-35 VHH-hFc (Fc fusion) EVQVVESGGGLVQPGGSLRLSCGVSGSILALNTMRWYRQTPGNQREWVASIYSSGGSTGYADSVKGRFIISRDSAKNMMSLQMNSLKSEDTAVYYCNVQTPLNVYWGQGTQVTVSS[human IgG1 Fc with changes not written out]	-187%	79%	5.31 nM	0.00131 s⁻¹	247000 M⁻¹ s⁻¹	42900	3.65 nM	13600	75%	16%	0.26 nM	318	32%	13800	11700	13000	115	11900	8840	1530	MFI of Biotin-Tab131 [17]: 12000
NB148-88 VHH-hFc (Fc fusion) QLQLVESGGGLVQPGGSHRLSCAVSVSTFTRYAMRWYRQAPGKEREWLTSIYSDGSSAYADSVKDRFTISLDNAKNMLYLQMNSLKPEDTAVYYCNANVDSKAYWGQGTQVTVAS[human IgG1 Fc with changes not written out]	-22%	77%	2.45 nM	0.00123 s⁻¹	499000 M⁻¹ s⁻¹	44700	2.55 nM	13000	76%	-21%	0.29 nM	310	-24%	13900	12200	12600	158	11700	9390	2050	MFI of Biotin-Tab131 [17]: 12600
NB148-25 VHH-hFc (Fc fusion) QVQLVESGGGLVQAGGSLRLSCAASGSTFGRIVMRWYRQAQGKQREWVASIYDSGSTSYSDPVQGRFTISRDNARNTVYLQMNSLRPADTAVYYCNLGTALSSYWGQGTQVTVSS[human IgG1 Fc with changes not written out]	34%	89%	1.59 nM	0.000358 s⁻¹	224000 M⁻¹ s⁻¹	41600	3.82 nM	13500	85%	56%	0.68 nM	394	46%	13300	11600	12500	124	11600	7570	977	MFI of Biotin-Tab131 [17]: 11700
NB149-31 VHH-hFc (Fc fusion) EVQVVESGGGLVQPGGSLRLSCAASGITFSGNYGGWFRQAPGEQRELVASMSSALGTKYADPVKGRFTISTDTAKNTVDLQMNSLGPEDTAVYYCYARVRLSRGGWGSEYWGQGTQVTVSS[human IgG1 Fc with changes not written out]	93%	34%	0.861 nM	0.00112 s⁻¹	1.3e+06 M⁻¹ s⁻¹	42700	1.85 nM	11300	62%	87%	0.16 nM	313	90%								
NB148-27 VHH-hFc (Fc fusion) EVQVVESGGGLVQAGASLRLSCASSGRTISPIAMAWFRQAPGKERELVAGLTWTGRTYYSDSVKGRFTISRDNAKNTVYLQMDSLKFEDTAVYFCAAGDNPDRRGSSWSSSSVYEYWGQGTQVTVSS[human IgG1 Fc with changes not written out]	82%	-108%	9.39 nM	0.00136 s⁻¹	144000 M⁻¹ s⁻¹	41700	2.29 nM	10600	-35%	78%	2.59 nM	352	88%								
NB148-46 VHH-hFc (Fc fusion) EVQLVESGGGLVQAGGSLRLSCAASGSTFSSYPMGWYRQAPGKQRELVAAISSGGSTNYADSVKGRFTISRDNAKNTVYLQMNSLKPEDTAVYYCNTRSPRVPNDSWGQGTQVTVSS[human IgG1 Fc with changes not written out]	81%	-13%	3.33 nM	0.003 s⁻¹	902000 M⁻¹ s⁻¹	43500	1.69 nM	10900	-6%	87%	0.14 nM	332	85%								
